Experimental data taken from PubChem BioAssay AID504845 (National Center for Advancing Translational Sciences (NCATS), 2011).
The campaign covered roughly 390,000 compounds. About 150 (0.038%) were called active. Inconclusive results, whose numbers are uncertain, are shown with a selection of clear calls. The call rests on the fitted dose curve; in most records, active means well fitted inhibition curve with a large enough effect; inconclusive means small, poorly fitted or top-dose-only effect; inactive means no such curve, though single readings can be large or run the other way. A potency beside an inconclusive call is a rough fit, not a confirmed value.

biological target: Regulator of G-protein signaling 4 (Homo sapiens) (UniProt P49798); assay: Inhibitors of Regulator of G Protein Signaling (RGS) 4: qHTS; conditions: Transcreener GDP fluorescence polarization, RGS4-accelerated GTP hydrolysis; series mostly up to 114 µM; further: nearly all actives have a fitted effect of over 75% in size
How it was run: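 MLSMR compounds (23 nl, pin-transferred) preincubated 10 min at room temperature with a 500nM (2x) first reagent, then RGS4 at 900nM (2x) plus Transcreener GDP mix added; fluorescence polarization (620/688 nm) read before and after 90 min at 30 °C.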
On the % scale 0 is the no-effect control and ±100 the full control effect; potency means the concentration at half of the fitted maximal effect; tags describe the fitted curve by direction and shape.

UniProt P49798, sequence (P49798 whole entry, looked up): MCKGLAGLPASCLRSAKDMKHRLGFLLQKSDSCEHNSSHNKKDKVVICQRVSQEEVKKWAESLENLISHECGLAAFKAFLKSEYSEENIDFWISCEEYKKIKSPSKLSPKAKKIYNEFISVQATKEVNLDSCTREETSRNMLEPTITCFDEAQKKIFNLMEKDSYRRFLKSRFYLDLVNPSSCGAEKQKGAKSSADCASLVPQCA

SMILES	Potency	activity change, negative = inhibition
Clc1ccc2c(SCC3CO3)c3ccccc3nc2c1 (configuration not stated)	inconclusive: 44.7 µM [inhibitor, partial curve, poor fit]	–
Cc1cc(C2=NNC(=Nc3ccc(S(=O)(=O)N4CCOCC4)cc3)SC2)c(C)n1CC1CCCO1 (configuration not stated)	inconclusive: 100 µM [inhibitor, partial curve, poor fit]	–
O=C(c1cccc(COCC(F)(F)C(F)F)c1)N1CCN(c2ccccc2)CC1	inactive	–
COc1cc2c(CCNC(C)=O)c[nH]c2cc1O	inconclusive: 18.9 µM [inhibitor, single point]	–
NS(=O)(=O)c1cccnc1Nc1cccc(C(F)(F)F)c1	inconclusive: 79.4 µM [inhibitor, partial curve, poor fit]	–
COc1ccccc1-c1cn[nH]c1-c1ccc(OCc2ccccc2F)cc1O	inactive	–
CC(C)N=c1scc(-c2cccs2)n1/N=C/c1ccc(O)c(O)c1O	inconclusive: 31.6 µM [inhibitor, partial curve, poor fit]	–
O=C(CN1CCN(c2ccc(F)cc2)CC1)Nc1ccccc1[N+](=O)[O-]	inconclusive: 89.1 µM [inhibitor, single point]	–
COc1cc2nc(C3CCC3)nc(N3CCN(c4ccccn4)CC3)c2cc1OC	inactive	–
CN(C)S(=O)(=O)c1cc(NC(=O)COC(=O)/C=C/c2ccco2)ccc1Cl	inconclusive: 25.1 µM [inhibitor, full curve, poor fit]	–
c1ccc(Nc2nc(NCc3ccco3)nc3nccnc23)cc1	inconclusive: 89.1 µM [inhibitor, single point]	–
C=CCNCCCOc1ccc(Cl)cc1C(C)(C)C	inactive	–
CC(=O)Nc1ccc(-c2cn3ccsc3n2)cc1	inactive	–
CCCOc1ccc(CNC(=O)Cn2ncn3c(cc4sc(CC)cc43)c2=O)cc1	inactive	–
COc1cc2c(cc1OC)C(C)N(C(=O)c1sc(-c3cnccn3)nc1C)CC2 (configuration not stated)	inconclusive: 89.1 µM [inhibitor, partial curve, poor fit]	–
O=C(CN1CCCC1)N1c2ccccc2Sc2ccc(C(F)(F)F)cc21	inactive	–
O=Cc1ccc(Sc2nnc(-c3ccccc3)o2)c([N+](=O)[O-])c1	inconclusive: 79.4 µM [inhibitor, single point]	–
Cc1ccc(C)c(NC(=S)NNC(=O)c2ccco2)c1	inconclusive: 50.1 µM [inhibitor, partial curve, poor fit]	–
O=C1C=CC(c2ccccc2)(c2ccccc2)CC1	inactive	–
CCCCCCCCCCCCCCCCCCOC[C@H](COP(=O)([O-])OCC[N+](C)(C)C)OC	inconclusive: 37.7 µM [inhibitor, partial curve, poor fit]	–
COc1ccc(/C=N/NC(=O)COc2ccccc2-c2ccccc2)cc1	inactive	–
Cc1ccc2cc(CN(Cc3nnnn3Cc3ccco3)CC3CCCO3)c(=O)[nH]c2c1C (configuration not stated)	inconclusive: 50.1 µM [inhibitor, partial curve, poor fit]	–
COc1ccc(CNC(=O)c2cccc(S(=O)(=O)N3CCN(C)CC3)c2)cc1	inconclusive: 44.7 µM [inhibitor, partial curve, poor fit]	–

SMILES	Potency	activity change, negative = inhibition
CCc1ccc(NC(=S)Nc2cccc3cnccc23)cc1	inconclusive: 100 µM [inhibitor, partial curve, poor fit]	–
CC(C)CNC(=O)c1cccc(NC(=O)C(C)Oc2ccccc2)c1 (configuration not stated)	inconclusive: 50.1 µM [inhibitor, partial curve, poor fit]	–
CNC(=O)c1c(NC(=O)/C=C/c2ccccc2Cl)sc2c1CCC2	inactive	–
CN1C(=O)/C(=C\C(=O)c2cccs2)c2ccccc21	inconclusive: 17.8 µM [inhibitor, full curve, poor fit]	–
CS(=O)(=O)N(CC(=O)N1CCOCC1)c1ccccc1	inactive	–
CNC(=O)[C@H]1O[C@@H](n2cnc3c(NCc4ccc(N)cc4)ncnc32)[C@H](O)[C@@H]1O	inconclusive: 2.12 µM [inhibitor, partial curve, poor fit]	–
CC(=O)/C=C/n1c(=S)oc2ccccc21	inactive	–
O=C(CNC(=O)COc1ccccc1)NCc1cccnc1	inactive	–
COc1ccc(NS(=O)(=O)c2cccc(C(=O)NNC(=O)COc3ccccc3)c2)cc1	inactive	–
Cc1cccc(N2CCN(C(=S)c3ccc4c(c3)OCO4)CC2)c1	inconclusive: 17.8 µM [inhibitor, full curve, poor fit]	–
CC(C)(C)NC(=O)NC(=O)CN1CCC(Cc2ccccc2)CC1	inconclusive: 44.7 µM [inhibitor, partial curve, poor fit]	–
O=[N+]([O-])c1ccc(N2CCN(C(=S)Nc3ccc(F)cc3)CC2)cc1	inconclusive: 35.5 µM [inhibitor, partial curve, poor fit]	–
O=C(CCN1CCc2ccccc21)c1ccc2c(c1)OCCO2	inconclusive: 17.8 µM [inhibitor, full curve, poor fit]	–
COc1ccccc1NS(=O)(=O)c1cc(NC(=O)C(C)NC(N)=O)ccc1N1CCCC1 (configuration not stated)	inconclusive: 35.5 µM [inhibitor, partial curve, poor fit]	–
CCOc1ccc(C2C(C#N)=C(N)Oc3n[nH]c(C)c32)cc1OC(=O)C1CC1 (configuration not stated)	inconclusive: 70.8 µM [inhibitor, single point]	–
CCOC(=O)Cc1cc(=O)n2[nH]c(C)c(-c3ccccc3)c2n1	inconclusive: 70.8 µM [inhibitor, single point]	–
N#C/C(=C/C1=C(N2CCOCC2)C(=C/c2ccc(Cl)cc2)/CC1)C(=O)Nc1ccccc1F	inconclusive: 89.1 µM [inhibitor, single point]	–
Cn1c(=O)[nH]c(=O)c2c1[nH]c(=S)n2Cc1ccccc1	inconclusive: 100 µM [inhibitor, partial curve, poor fit]	–
CCCNC(=O)C1CC(c2cccc(F)c2)=NO1 (configuration not stated)	inactive	–
CC(C)(C)c1ccc(-n2ncc3c2CCCC3NC(=O)CCCn2cncn2)cc1 (configuration not stated)	inconclusive: 100 µM [inhibitor, partial curve, poor fit]	–
Cc1ccc(NC(=O)CCS(=O)(=O)c2ccc(Br)cc2)nc1	inconclusive: 44.7 µM [inhibitor, partial curve, poor fit]	–
O=C(c1ccco1)N1CCN(C(=O)c2cnn3cccnc23)CC1	inactive	–
CCOc1ccc(NC(=O)CSc2nc(NS(=O)(=O)c3ccc(C)cc3)cc(=O)[nH]2)cc1	inconclusive: 50.1 µM [inhibitor, partial curve, poor fit]	–

SMILES	Potency	activity change, negative = inhibition
c1ccc(CN(Cc2ccco2)C(c2ccncc2)c2nnnn2C2CCCC2)cc1 (configuration not stated)	inconclusive: 39.8 µM [inhibitor, partial curve, poor fit]	–
O=C1OC(c2ccc(Cl)cc2)=N/C1=C\c1cccnc1	inconclusive: 89.1 µM [inhibitor, single point]	–
CC(NC(=O)c1sc2cc([N+](=O)[O-])ccc2c1Cl)C(C)(C)C (configuration not stated)	inconclusive: 44.7 µM [inhibitor, partial curve, poor fit]	–
O=C(CSc1ccccc1)Nc1ccc(-c2nc3ccccc3[nH]2)cc1	inconclusive: 50.1 µM [inhibitor, partial curve, poor fit]	–
COc1ccc(C(=O)N2CCCc3ccccc32)cc1	inactive	–
Cc1ccccc1C(=O)Nc1cc(-c2ccc(Cl)cc2)nn1-c1ccccc1	inactive	–
COc1cccc(/C=N/NC(N)=S)c1OCc1ccccc1Cl	inconclusive: 11.2 µM [inhibitor, full curve, poor fit]	–
COc1ccc(NC2=NCC(Cc3ccc(Br)cc3)S2)cc1 (configuration not stated)	inactive	–
COCCn1nnnc1C(c1cc2cc(OC)c(OC)cc2[nH]c1=O)N1CCN(c2ccc(O)cc2)CC1 (configuration not stated)	inconclusive: 79.4 µM [inhibitor, single point]	–
COc1cccc(NC(=O)CSc2nnc(-c3ccoc3C)n2-c2ccccc2)c1	–	inactive: -8.6% [at 11.4 µM]
Cc1ccc(C2CC(=O)C=C(NCC(C)C)C2)cc1 (configuration not stated)	inconclusive: 50.1 µM [inhibitor, partial curve, poor fit]	–
COc1cc(OC)c(OC)cc1/C=N/NC(=O)c1ccc(=O)n(C)c1	inactive	–
Cc1ccc(C)c2nc(N3CCCC3)c(C#N)cc12	inconclusive: 89.1 µM [inhibitor, single point]	–
Cc1c(C)c2ccc(OCC(=O)Nc3cccnc3)cc2oc1=O	inconclusive: 50.1 µM [inhibitor, partial curve, poor fit]	–
COC(=O)c1ccc(CSc2nncn2N)cc1	inconclusive: 79.4 µM [inhibitor, partial curve, poor fit]	–
O=C(O)CSc1cc(NS(=O)(=O)c2ccc(Br)cc2)c2ccccc2c1O	inconclusive: 17.8 µM [inhibitor, full curve, poor fit]	–
O=C(O)c1cc(NCc2ccccc2C(F)(F)F)ccc1N1CCOCC1	inconclusive: 100 µM [inhibitor, partial curve, poor fit]	–
O=C(C1CCN(Cc2cccs2)CC1)N1CCN(Cc2ccc3c(c2)OCO3)CC1	inactive	–
CSc1ccc(C(=S)N2CCN(CCO)CC2)cc1	inconclusive: 17.8 µM [inhibitor, full curve, poor fit]	–
CCC(=O)N1N=C(c2ccc(C)o2)CC1c1ccc(Br)cc1 (configuration not stated)	inconclusive: 50.1 µM [inhibitor, partial curve, poor fit]	–
NC(=O)C1CCN(c2cc(Cl)nc(N)n2)CC1	inconclusive: 28.2 µM [inhibitor, full curve, poor fit]	–
